Our source for the binding values is PMC11546610, “Molecular Modeling and In Vitro Functional Analysis of the RGS12 PDZ Domain Variant Associated with High-Penetrance Familial Bipolar Disorder” (International Journal of Molecular Sciences, 2024).

These are yes or no findings as the source states them, for the method shown. For part of these data: Binding seen in cells or lysates may run through a third protein. Some results given as binding are weak or reduced against the parent protein; the word gives no strength. Tags and fused reporters may be left off the sequences shown. *: point of attachment. Biotin = O=C1N[C@H]2[C@H](CS[C@H]2CCCCC(=O)*)N1; Ahx = NCCCCCC(=O)O

Experiment [1] concerns the target T1, rat beta2-adrenergic receptor C-terminal peptide, biotin-Ahx-…-carboxylic acid (rat).
T1 sequence (peptide, biotin-Ahx on the N-terminus; C-terminal carboxylic acid): QGRNCNTNDSPL
Briefly: SPR; Alto 8 × 2 digital microfluidics SPR (Nicoya); biotinylated peptides immobilised on streptavidin-coated gold nanosensors; GST-RGS12 PDZ fusion protein as analyte, single-cycle kinetics, 111 nM-9 μM; PBS pH 7.3 with 0.1% Tween 20, BSA, 3% glycerol; mNotch1 or rβ2AR reference sensor subtracted; 1:1 Langmuir model with mass transport limitation; apparent rates, estimated KD; both purified.

For experiment [2], the target named is T2, mNotch1 C-terminal peptide, biotin-Ahx-…-carboxylic acid (mouse).
T2 sequence (peptide, biotin-Ahx on the N-terminus; C-terminal carboxylic acid): PSQITHIPEAFK
Described as above.

Experiment [3] concerns the target T3, HA-epitope tagged RGS12 full-length protein (UniProt O14924).
T3 sequence: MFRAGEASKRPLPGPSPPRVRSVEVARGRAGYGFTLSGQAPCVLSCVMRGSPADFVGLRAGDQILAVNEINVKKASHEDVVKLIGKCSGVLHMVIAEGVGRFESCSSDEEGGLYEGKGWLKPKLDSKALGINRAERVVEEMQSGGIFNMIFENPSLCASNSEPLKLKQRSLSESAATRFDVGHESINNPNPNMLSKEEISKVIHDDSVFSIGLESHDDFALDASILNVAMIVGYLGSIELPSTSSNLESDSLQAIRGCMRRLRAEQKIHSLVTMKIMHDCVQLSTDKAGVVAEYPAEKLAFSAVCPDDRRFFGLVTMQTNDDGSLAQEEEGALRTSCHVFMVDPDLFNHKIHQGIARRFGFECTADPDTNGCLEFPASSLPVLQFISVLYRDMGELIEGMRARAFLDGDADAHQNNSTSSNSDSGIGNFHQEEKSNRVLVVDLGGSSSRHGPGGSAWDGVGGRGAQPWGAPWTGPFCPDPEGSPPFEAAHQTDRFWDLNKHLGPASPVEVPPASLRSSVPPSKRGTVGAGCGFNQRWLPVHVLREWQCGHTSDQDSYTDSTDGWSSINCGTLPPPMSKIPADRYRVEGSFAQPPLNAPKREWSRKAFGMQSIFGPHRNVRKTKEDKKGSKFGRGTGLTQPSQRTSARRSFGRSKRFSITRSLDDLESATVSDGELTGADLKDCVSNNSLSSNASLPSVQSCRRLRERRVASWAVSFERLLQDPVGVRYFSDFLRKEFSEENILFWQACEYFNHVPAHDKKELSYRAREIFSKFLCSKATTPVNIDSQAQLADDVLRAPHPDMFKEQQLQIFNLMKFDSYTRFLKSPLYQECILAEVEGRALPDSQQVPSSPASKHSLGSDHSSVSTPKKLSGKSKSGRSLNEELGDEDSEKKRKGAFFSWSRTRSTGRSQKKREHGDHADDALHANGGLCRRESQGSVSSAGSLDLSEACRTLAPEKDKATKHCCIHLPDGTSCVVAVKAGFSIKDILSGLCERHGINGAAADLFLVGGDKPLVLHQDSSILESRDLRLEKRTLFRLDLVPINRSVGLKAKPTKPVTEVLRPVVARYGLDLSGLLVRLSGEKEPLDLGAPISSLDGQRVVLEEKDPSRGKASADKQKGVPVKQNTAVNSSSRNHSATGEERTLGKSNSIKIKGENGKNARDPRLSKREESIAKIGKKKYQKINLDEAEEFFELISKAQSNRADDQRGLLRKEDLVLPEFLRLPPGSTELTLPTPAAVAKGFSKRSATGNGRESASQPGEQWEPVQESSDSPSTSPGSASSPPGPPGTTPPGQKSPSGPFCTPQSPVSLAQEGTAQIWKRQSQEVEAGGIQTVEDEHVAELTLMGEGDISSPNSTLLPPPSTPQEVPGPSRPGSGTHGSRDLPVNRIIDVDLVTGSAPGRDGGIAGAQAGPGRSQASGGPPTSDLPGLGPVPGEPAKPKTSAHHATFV
Briefly: co-IP; HEK293T cells co-transfected with pcDNA3.1-Flag-SAPAP3 and pcDNA3.1-HA-RGS12; Triton-X lysis buffer (20 mM Tris-HCl pH 7.5, 150 mM NaCl, 1 mM EDTA, 1 mM EGTA, 1% Triton X-100); anti-HA or anti-Flag antibody overnight at 4 °C, protein-A/G beads; immunoblot for HA or Flag.

In experiment [4] the target is T4, Flag-epitope tagged SAPAP3 full-length protein (UniProt O95886).
T4 sequence: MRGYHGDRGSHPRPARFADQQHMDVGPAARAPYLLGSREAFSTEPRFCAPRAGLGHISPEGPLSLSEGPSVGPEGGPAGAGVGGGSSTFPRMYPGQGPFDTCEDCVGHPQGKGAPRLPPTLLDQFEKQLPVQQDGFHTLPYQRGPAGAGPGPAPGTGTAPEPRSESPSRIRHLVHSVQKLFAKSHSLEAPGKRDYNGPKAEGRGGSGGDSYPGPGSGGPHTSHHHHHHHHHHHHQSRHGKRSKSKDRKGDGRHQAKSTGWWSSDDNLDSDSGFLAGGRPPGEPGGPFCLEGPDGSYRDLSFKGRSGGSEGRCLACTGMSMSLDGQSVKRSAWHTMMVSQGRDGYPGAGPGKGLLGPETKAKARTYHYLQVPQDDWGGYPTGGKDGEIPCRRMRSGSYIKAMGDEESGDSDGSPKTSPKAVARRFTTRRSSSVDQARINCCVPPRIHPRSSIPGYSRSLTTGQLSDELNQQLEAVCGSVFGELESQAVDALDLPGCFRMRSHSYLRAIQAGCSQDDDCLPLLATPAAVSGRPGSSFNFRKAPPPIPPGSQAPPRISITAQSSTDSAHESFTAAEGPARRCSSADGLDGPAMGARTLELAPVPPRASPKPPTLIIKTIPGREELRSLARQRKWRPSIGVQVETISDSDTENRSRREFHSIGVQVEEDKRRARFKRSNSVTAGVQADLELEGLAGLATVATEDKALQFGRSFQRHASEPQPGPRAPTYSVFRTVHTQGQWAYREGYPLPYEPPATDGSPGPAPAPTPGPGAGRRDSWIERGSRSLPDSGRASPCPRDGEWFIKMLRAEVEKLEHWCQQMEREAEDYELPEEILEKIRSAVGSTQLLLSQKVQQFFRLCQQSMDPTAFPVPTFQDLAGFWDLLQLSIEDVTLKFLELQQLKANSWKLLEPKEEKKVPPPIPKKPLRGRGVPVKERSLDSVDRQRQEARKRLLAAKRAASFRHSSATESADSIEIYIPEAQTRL
Described as above.

B1: Wildtype human RGS12 PDZ domain GST-fusion protein (domain or fragment, UniProt O14924 18-101)
chain: PRVRSVEVARGRAGYGFTLSGQAPCVLSCVMRGSPADFVGLRAGDQILAVNEINVKKASHEDVVKLIGKCSGVLHMVIAEGVGR
For B1, the binding result in experiment [1] and in experiment [2] was “no binding (tested: 9 μM)” each time.

B2: R59Q-variant human RGS12 PDZ domain GST-fusion protein (domain or fragment, UniProt O14924 18-101, looked up)
chain: PRVRSVEVARGRAGYGFTLSGQAPCVLSCVMRGSPADFVGLQAGDQILAVNEINVKKASHEDVVKLIGKCSGVLHMVIAEGVGR
notes: human RGS12 PDZ domain, aa 18-101 of UniProt O14924, with the bipolar disorder-associated missense variation R59Q; R59Q is a variant found in families with bipolar disorder (Forstner et al.); also called R59Q-variant PDZ domain fusion protein; not shown: GST, N-terminal, kept
Take B2: the binding entry in experiment [1] and in experiment [2] was “no binding (tested: 9 μM)” each time.

B3: Flag-epitope tagged SAPAP3 full-length protein (protein, UniProt O95886 1-979)
chain: MRGYHGDRGSHPRPARFADQQHMDVGPAARAPYLLGSREAFSTEPRFCAPRAGLGHISPEGPLSLSEGPSVGPEGGPAGAGVGGGSSTFPRMYPGQGPFDTCEDCVGHPQGKGAPRLPPTLLDQFEKQLPVQQDGFHTLPYQRGPAGAGPGPAPGTGTAPEPRSESPSRIRHLVHSVQKLFAKSHSLEAPGKRDYNGPKAEGRGGSGGDSYPGPGSGGPHTSHHHHHHHHHHHHQSRHGKRSKSKDRKGDGRHQAKSTGWWSSDDNLDSDSGFLAGGRPPGEPGGPFCLEGPDGSYRDLSFKGRSGGSEGRCLACTGMSMSLDGQSVKRSAWHTMMVSQGRDGYPGAGPGKGLLGPETKAKARTYHYLQVPQDDWGGYPTGGKDGEIPCRRMRSGSYIKAMGDEESGDSDGSPKTSPKAVARRFTTRRSSSVDQARINCCVPPRIHPRSSIPGYSRSLTTGQLSDELNQQLEAVCGSVFGELESQAVDALDLPGCFRMRSHSYLRAIQAGCSQDDDCLPLLATPAAVSGRPGSSFNFRKAPPPIPPGSQAPPRISITAQSSTDSAHESFTAAEGPARRCSSADGLDGPAMGARTLELAPVPPRASPKPPTLIIKTIPGREELRSLARQRKWRPSIGVQVETISDSDTENRSRREFHSIGVQVEEDKRRARFKRSNSVTAGVQADLELEGLAGLATVATEDKALQFGRSFQRHASEPQPGPRAPTYSVFRTVHTQGQWAYREGYPLPYEPPATDGSPGPAPAPTPGPGAGRRDSWIERGSRSLPDSGRASPCPRDGEWFIKMLRAEVEKLEHWCQQMEREAEDYELPEEILEKIRSAVGSTQLLLSQKVQQFFRLCQQSMDPTAFPVPTFQDLAGFWDLLQLSIEDVTLKFLELQQLKANSWKLLEPKEEKKVPPPIPKKPLRGRGVPVKERSLDSVDRQRQEARKRLLAAKRAASFRHSSATESADSIEIYIPEAQTRL
On to B3, for which the binding result in experiment [3] is listed as “binds”.

B4: HA-epitope tagged RGS12 full-length protein (protein, UniProt O14924 1-1447)
chain: MFRAGEASKRPLPGPSPPRVRSVEVARGRAGYGFTLSGQAPCVLSCVMRGSPADFVGLRAGDQILAVNEINVKKASHEDVVKLIGKCSGVLHMVIAEGVGRFESCSSDEEGGLYEGKGWLKPKLDSKALGINRAERVVEEMQSGGIFNMIFENPSLCASNSEPLKLKQRSLSESAATRFDVGHESINNPNPNMLSKEEISKVIHDDSVFSIGLESHDDFALDASILNVAMIVGYLGSIELPSTSSNLESDSLQAIRGCMRRLRAEQKIHSLVTMKIMHDCVQLSTDKAGVVAEYPAEKLAFSAVCPDDRRFFGLVTMQTNDDGSLAQEEEGALRTSCHVFMVDPDLFNHKIHQGIARRFGFECTADPDTNGCLEFPASSLPVLQFISVLYRDMGELIEGMRARAFLDGDADAHQNNSTSSNSDSGIGNFHQEEKSNRVLVVDLGGSSSRHGPGGSAWDGVGGRGAQPWGAPWTGPFCPDPEGSPPFEAAHQTDRFWDLNKHLGPASPVEVPPASLRSSVPPSKRGTVGAGCGFNQRWLPVHVLREWQCGHTSDQDSYTDSTDGWSSINCGTLPPPMSKIPADRYRVEGSFAQPPLNAPKREWSRKAFGMQSIFGPHRNVRKTKEDKKGSKFGRGTGLTQPSQRTSARRSFGRSKRFSITRSLDDLESATVSDGELTGADLKDCVSNNSLSSNASLPSVQSCRRLRERRVASWAVSFERLLQDPVGVRYFSDFLRKEFSEENILFWQACEYFNHVPAHDKKELSYRAREIFSKFLCSKATTPVNIDSQAQLADDVLRAPHPDMFKEQQLQIFNLMKFDSYTRFLKSPLYQECILAEVEGRALPDSQQVPSSPASKHSLGSDHSSVSTPKKLSGKSKSGRSLNEELGDEDSEKKRKGAFFSWSRTRSTGRSQKKREHGDHADDALHANGGLCRRESQGSVSSAGSLDLSEACRTLAPEKDKATKHCCIHLPDGTSCVVAVKAGFSIKDILSGLCERHGINGAAADLFLVGGDKPLVLHQDSSILESRDLRLEKRTLFRLDLVPINRSVGLKAKPTKPVTEVLRPVVARYGLDLSGLLVRLSGEKEPLDLGAPISSLDGQRVVLEEKDPSRGKASADKQKGVPVKQNTAVNSSSRNHSATGEERTLGKSNSIKIKGENGKNARDPRLSKREESIAKIGKKKYQKINLDEAEEFFELISKAQSNRADDQRGLLRKEDLVLPEFLRLPPGSTELTLPTPAAVAKGFSKRSATGNGRESASQPGEQWEPVQESSDSPSTSPGSASSPPGPPGTTPPGQKSPSGPFCTPQSPVSLAQEGTAQIWKRQSQEVEAGGIQTVEDEHVAELTLMGEGDISSPNSTLLPPPSTPQEVPGPSRPGSGTHGSRDLPVNRIIDVDLVTGSAPGRDGGIAGAQAGPGRSQASGGPPTSDLPGLGPVPGEPAKPKTSAHHATFV
Regarding B4, in experiment [4], the binding entry is recorded as “binds”.
